In article PMC9911399, “Two distinct binding modes provide the RNA-binding protein RbFox with extraordinary sequence specificity”:
Numbering of substitutions follows the chain as printed; changes in the protein carry UniProt numbers. This is one part of the list.

T1: RBFOX1 RRM (Homo sapiens, UniProt Q9NWB1 109-208)
T1 sequence: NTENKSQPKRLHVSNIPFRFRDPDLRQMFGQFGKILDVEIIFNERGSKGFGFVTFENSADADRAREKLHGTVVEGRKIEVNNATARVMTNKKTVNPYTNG

B1: AUUGGGA (DNA:RNA)
RNA: GGGAGACCGGAAUUCAGAUUGUCCAUUGGGAUUAAAUCCCGUCGUAGCCACCA
DNA 1: CAATCTGAATTCCGGTCTCCC
DNA 2: TGGTGGCTACGACGGGATT
B2: GAUCGGG (DNA:RNA)
RNA: B1 RNA with A25G, U26A, G28C, A31G
DNA 1: CAATCTGAATTCCGGTCTCCC
DNA 2: TGGTGGCTACGACGGGATT
B3: CCGGAUA (DNA:RNA)
RNA: B1 RNA with A25C, U26C, U27G, G29A, G30U
DNA 1: CAATCTGAATTCCGGTCTCCC
DNA 2: TGGTGGCTACGACGGGATT
B4: CGAAAGG (DNA:RNA)
RNA: B1 RNA with A25C, U26G, U27A, G28A, G29A, A31G
DNA 1: CAATCTGAATTCCGGTCTCCC
DNA 2: TGGTGGCTACGACGGGATT
B5: GAUUACU (DNA:RNA)
RNA: B1 RNA with A25G, U26A, G28U, G29A, G30C, A31U
DNA 1: CAATCTGAATTCCGGTCTCCC
DNA 2: TGGTGGCTACGACGGGATT
B6: UUCAUCC (DNA:RNA)
RNA: B1 RNA with A25U, U27C, G28A, G29U, G30C, A31C
DNA 1: CAATCTGAATTCCGGTCTCCC
DNA 2: TGGTGGCTACGACGGGATT
B7: GUCGAGG (DNA:RNA)
RNA: B1 RNA with A25G, U27C, G29A, A31G
DNA 1: CAATCTGAATTCCGGTCTCCC
DNA 2: TGGTGGCTACGACGGGATT
B8: GUGAAGA (DNA:RNA)
RNA: B1 RNA with A25G, U27G, G28A, G29A
DNA 1: CAATCTGAATTCCGGTCTCCC
DNA 2: TGGTGGCTACGACGGGATT
B9: CCGUGAG (DNA:RNA)
RNA: B1 RNA with A25C, U26C, U27G, G28U, G30A, A31G
DNA 1: CAATCTGAATTCCGGTCTCCC
DNA 2: TGGTGGCTACGACGGGATT
B10: GAGGGUU (DNA:RNA)
RNA: B1 RNA with A25G, U26A, U27G, G30U, A31U
DNA 1: CAATCTGAATTCCGGTCTCCC
DNA 2: TGGTGGCTACGACGGGATT
B11: UAGCCCG (DNA:RNA)
RNA: GGGAGACCGGAAUUCAGAUUGUCCUAGCCCGUUAAAUCCCGUCGUAGCCACCA
DNA 1: CAATCTGAATTCCGGTCTCCC
DNA 2: TGGTGGCTACGACGGGATT
B12: AAUGCAG (DNA:RNA)
RNA: B1 RNA with U26A, G29C, G30A, A31G
DNA 1: CAATCTGAATTCCGGTCTCCC
DNA 2: TGGTGGCTACGACGGGATT
B13: CACGCGA (DNA:RNA)
RNA: B1 RNA with A25C, U26A, U27C, G29C
DNA 1: CAATCTGAATTCCGGTCTCCC
DNA 2: TGGTGGCTACGACGGGATT
B14: GGGGACU (DNA:RNA)
RNA: B11 RNA with U25G, A26G, C28G, C29A, G31U
DNA 1: CAATCTGAATTCCGGTCTCCC
DNA 2: TGGTGGCTACGACGGGATT
B15: GCCAAUC (DNA:RNA)
RNA: GGGAGACCGGAAUUCAGAUUGUCCGCCAAUCUUAAAUCCCGUCGUAGCCACCA
DNA 1: CAATCTGAATTCCGGTCTCCC
DNA 2: TGGTGGCTACGACGGGATT
B16: CAGAAGG (DNA:RNA)
RNA: B11 RNA with U25C, C28A, C29A, C30G
DNA 1: CAATCTGAATTCCGGTCTCCC
DNA 2: TGGTGGCTACGACGGGATT
B17: CUUACUG (DNA:RNA)
RNA: B1 RNA with A25C, G28A, G29C, G30U, A31G
DNA 1: CAATCTGAATTCCGGTCTCCC
DNA 2: TGGTGGCTACGACGGGATT
B18: UGAGCUU (DNA:RNA)
RNA: B11 RNA with A26G, G27A, C28G, C30U, G31U
DNA 1: CAATCTGAATTCCGGTCTCCC
DNA 2: TGGTGGCTACGACGGGATT
B19: AGCUUUG (DNA:RNA)
RNA: B15 RNA with G25A, C26G, A28U, A29U, C31G
DNA 1: CAATCTGAATTCCGGTCTCCC
DNA 2: TGGTGGCTACGACGGGATT
B20: GCCACUC (DNA:RNA)
RNA: B15 RNA with A29C
DNA 1: CAATCTGAATTCCGGTCTCCC
DNA 2: TGGTGGCTACGACGGGATT
B21: UUUAACG (DNA:RNA)
RNA: B11 RNA with A26U, G27U, C28A, C29A
DNA 1: CAATCTGAATTCCGGTCTCCC
DNA 2: TGGTGGCTACGACGGGATT
B22: GCUUCCC (DNA:RNA)
RNA: B15 RNA with C27U, A28U, A29C, U30C
DNA 1: CAATCTGAATTCCGGTCTCCC
DNA 2: TGGTGGCTACGACGGGATT
B23: CCAAAUG (DNA:RNA)
RNA: B15 RNA with G25C, C27A, C31G
DNA 1: CAATCTGAATTCCGGTCTCCC
DNA 2: TGGTGGCTACGACGGGATT
B24: AAUCUCG (DNA:RNA)
RNA: B11 RNA with U25A, G27U, C29U
DNA 1: CAATCTGAATTCCGGTCTCCC
DNA 2: TGGTGGCTACGACGGGATT
B25: UCUCUAU (DNA:RNA)
RNA: B11 RNA with A26C, G27U, C29U, C30A, G31U
DNA 1: CAATCTGAATTCCGGTCTCCC
DNA 2: TGGTGGCTACGACGGGATT
B26: UGCCGUC (DNA:RNA)
RNA: B15 RNA with G25U, C26G, A28C, A29G
DNA 1: CAATCTGAATTCCGGTCTCCC
DNA 2: TGGTGGCTACGACGGGATT
B27: ACUUUUG (DNA:RNA)
RNA: B1 RNA with U26C, G28U, G29U, G30U, A31G
DNA 1: CAATCTGAATTCCGGTCTCCC
DNA 2: TGGTGGCTACGACGGGATT
B28: GACGCCC (DNA:RNA)
RNA: B15 RNA with C26A, A28G, A29C, U30C
DNA 1: CAATCTGAATTCCGGTCTCCC
DNA 2: TGGTGGCTACGACGGGATT
B29: GUUUCGA (DNA:RNA)
RNA: B1 RNA with A25G, G28U, G29C
DNA 1: CAATCTGAATTCCGGTCTCCC
DNA 2: TGGTGGCTACGACGGGATT
B30: UAUAAUG (DNA:RNA)
RNA: B15 RNA with G25U, C26A, C27U, C31G
DNA 1: CAATCTGAATTCCGGTCTCCC
DNA 2: TGGTGGCTACGACGGGATT
B31: AUGAGUC (DNA:RNA)
RNA: B1 RNA with U27G, G28A, G30U, A31C
DNA 1: CAATCTGAATTCCGGTCTCCC
DNA 2: TGGTGGCTACGACGGGATT

Each binder was assayed against T1, RBFOX1 RRM (assay: EMSA; HiTS-Eq, 1 nM pool, 10 min; buffer printed only for the single-RNA assays: 10 mM Tris pH 7.5, 150 mM NaCl, 3.4 mM EDTA, 0.001% NP-40, 30 C). Settings: tags: His6 N-terminal (pET28a); label: 5' 32P.
Summary of the method: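 These values rest on relative association constants, computed from read-count changes of each RNA species versus the control reaction and normalised to the cognate motif. Reads came from free RNA recovered by 8% native PAGE after purified RbFox RRM (wild type or mutant) at increasing concentrations was equilibrated for 10 min in 50 µL with 1 nM of a 5′-radiolabelled pool with 7 randomized nucleotides and DNA-annealed flanks.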

In order of falling binding signal:
1. B14  0.0239 KA relative to UGCAUGU
2. B10  0.021 KA relative to UGCAUGU
3. B29  0.0203 KA relative to UGCAUGU
4. B26  0.0192 KA relative to UGCAUGU
5. B19  0.0178 KA relative to UGCAUGU
6. B18  0.0173 KA relative to UGCAUGU
7. B27  0.0162 KA relative to UGCAUGU
8. B8  0.0128 KA relative to UGCAUGU
9. B31  0.0125 KA relative to UGCAUGU
10. B11  0.0123 KA relative to UGCAUGU
11. B7  0.0114 KA relative to UGCAUGU
12. B28  0.0113 KA relative to UGCAUGU
13. B30  0.0111 KA relative to UGCAUGU
14. B9  0.0105 KA relative to UGCAUGU
15. B17  0.00968 KA relative to UGCAUGU
16. B22  0.00968 KA relative to UGCAUGU
17. B16  0.0092 KA relative to UGCAUGU
18. B2  0.00907 KA relative to UGCAUGU
19. B12  0.00831 KA relative to UGCAUGU
20. B3  0.00829 KA relative to UGCAUGU
21. B21  0.00766 KA relative to UGCAUGU
22. B24  0.007 KA relative to UGCAUGU
23. B15  0.00618 KA relative to UGCAUGU
24. B1  0.00568 KA relative to UGCAUGU
25. B5  0.00556 KA relative to UGCAUGU
26. B20  0.00506 KA relative to UGCAUGU
27. B4  0.0047 KA relative to UGCAUGU
28. B23  0.00451 KA relative to UGCAUGU
29. B25  0.00378 KA relative to UGCAUGU
30. B13  0.00357 KA relative to UGCAUGU
31. B6  0.00306 KA relative to UGCAUGU
